Structures are written as SMILES. Among all 310,000 compounds or so, about 2,200 (0.71%) showed an effect of 50% or more. The effect is printed as a negative number. Some of the results follow.

Sequence of human ether-à-go-go-related gene (hERG) potassium channel (Q12809 whole entry, looked up): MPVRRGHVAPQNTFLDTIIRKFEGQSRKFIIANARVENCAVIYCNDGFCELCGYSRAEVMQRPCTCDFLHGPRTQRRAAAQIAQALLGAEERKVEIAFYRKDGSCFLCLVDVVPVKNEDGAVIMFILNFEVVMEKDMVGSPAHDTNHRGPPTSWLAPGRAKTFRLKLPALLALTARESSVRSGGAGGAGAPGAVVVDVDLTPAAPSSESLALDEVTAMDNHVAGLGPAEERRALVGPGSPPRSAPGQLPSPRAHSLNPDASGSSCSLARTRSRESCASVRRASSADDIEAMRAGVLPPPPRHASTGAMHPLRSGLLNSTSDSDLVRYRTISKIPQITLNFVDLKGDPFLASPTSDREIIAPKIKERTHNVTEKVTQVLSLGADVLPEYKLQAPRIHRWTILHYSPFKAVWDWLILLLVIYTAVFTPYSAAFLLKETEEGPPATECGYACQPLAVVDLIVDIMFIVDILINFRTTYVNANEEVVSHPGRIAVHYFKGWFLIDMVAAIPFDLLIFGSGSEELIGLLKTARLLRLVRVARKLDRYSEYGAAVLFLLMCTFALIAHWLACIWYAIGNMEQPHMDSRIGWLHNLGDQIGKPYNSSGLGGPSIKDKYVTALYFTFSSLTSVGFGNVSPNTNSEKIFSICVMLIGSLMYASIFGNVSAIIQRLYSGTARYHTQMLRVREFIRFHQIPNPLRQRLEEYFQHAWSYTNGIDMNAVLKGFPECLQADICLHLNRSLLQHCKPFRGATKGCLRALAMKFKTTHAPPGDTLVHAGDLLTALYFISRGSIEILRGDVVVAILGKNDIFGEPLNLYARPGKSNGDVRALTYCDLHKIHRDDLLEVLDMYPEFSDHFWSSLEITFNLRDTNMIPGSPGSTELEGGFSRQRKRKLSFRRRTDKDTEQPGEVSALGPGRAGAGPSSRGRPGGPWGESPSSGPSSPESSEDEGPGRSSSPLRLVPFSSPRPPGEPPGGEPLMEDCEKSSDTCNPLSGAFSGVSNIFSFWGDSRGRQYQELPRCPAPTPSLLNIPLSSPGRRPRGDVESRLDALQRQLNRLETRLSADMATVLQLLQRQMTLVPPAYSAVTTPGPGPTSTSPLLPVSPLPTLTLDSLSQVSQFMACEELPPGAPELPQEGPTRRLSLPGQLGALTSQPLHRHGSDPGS

The assay concerns the target human ether-à-go-go-related gene (hERG) potassium channel (human, UniProt Q12809). Briefly: primary screen, population patch clamp on CHO cells stably expressing hERG.
`COc1ccccc1OCCCC(=O)Nc1nnc(C2CCCO2)s1` (centres unmarked): the “hERG current change (%, negative = inhibition) at 1uM” value was 11.2%. On to `O=C(CSc1nnc(-c2ccc(F)cc2)o1)N1CCN(C(=O)c2ccco2)CC1`, for which the “hERG current change (%, negative = inhibition) at 1uM” value is given as -13.2%. Consider `CCOC(=O)c1sc(C)c2c1NC(C)(c1ccccc1)NC2=O` (centres unmarked), for which the “hERG current change (%, negative = inhibition) at 1uM” value is 5.72%. `O=C(CC1C(=O)NCCN1Cc1ccccc1F)NC1CCCCCC1` (centres unmarked): the “hERG current change (%, negative = inhibition) at 1uM” value is on record as 14%. Regarding `Cc1ccc(OCC(=O)Nc2cnn(CCCC(=O)O)c2)c([N+](=O)[O-])c1`, the “hERG current change (%, negative = inhibition) at 1uM” value amounted to 11.3%.

Regarding `O=C(Cc1ccccc1)NC1CCN(S(=O)(=O)c2ccc(C(=O)O)cc2)CC1`, the “hERG current change (%, negative = inhibition) at 1uM” value was determined as 12.6%. To `COc1ccc(C)cc1N(CC(=O)Nc1ccc(S(=O)(=O)N2CCCC2)cc1)S(C)(=O)=O` belongs 14.6%; to `CC(=O)Nc1cccc(OC(=O)COc2ccc(Br)cc2)c1`, 9.27%.

On to `O=C1NCCCC1C(=O)N/N=C/c1cccc(Cl)c1` (centres unmarked), for which the “hERG current change (%, negative = inhibition) at 1uM” value amounted to 11.3%. For `CCOc1ccccc1NC(=O)NCc1ccc2c(c1)OCO2`, the “hERG current change (%, negative = inhibition) at 1uM” value was determined as 8.26%. Take `COc1ccc(C(=O)Nc2nnc(CCc3ccccc3)s2)c(OC)c1`: the “hERG current change (%, negative = inhibition) at 1uM” value was found to be 13.9%.

Regarding `O=C(Nc1ccc(N2CCOCC2)c([N+](=O)[O-])c1)c1ccco1`, the “hERG current change (%, negative = inhibition) at 1uM” value is reported as 4.62%.

`Cn1c(Cl)c(C(=O)Nc2ccc(Cl)cc2)c2ccccc21`: the “hERG current change (%, negative = inhibition) at 1uM” value is recorded as 14.4%.

As to `CN(C1CCCCC1)S(=O)(=O)c1ccc(S(=O)(=O)N2CCN(CCC#N)CC2)cc1`, the “hERG current change (%, negative = inhibition) at 1uM” value is 6.08%. As to `O=C(CN1C(=O)NC2(CCCC2)C1=O)Nc1cccc(C(F)(F)F)c1`, the “hERG current change (%, negative = inhibition) at 1uM” value amounted to 13.4%. As for `COc1cc(C2/C(=C(\O)c3ccc4c(c3)OCCO4)C(=O)C(=O)N2c2nnc(C)s2)cc(OC)c1OC` (centres unmarked), the “hERG current change (%, negative = inhibition) at 1uM” value is 9.63%. As to `CS(=O)(=O)N1CCN(c2ccc(C(=O)NC34CC5CC(CC(C5)C3)C4)cc2[N+](=O)[O-])CC1`, the “hERG current change (%, negative = inhibition) at 1uM” value came to 9.04%. For `CCOC(=O)N1CCC(NC(=O)c2ccc3c(Cl)c4c(nc3c2)CCCC4)CC1`, the “hERG current change (%, negative = inhibition) at 1uM” value was -3.34%. Consider `CC(C)COC(=O)NCC12C=CC(O1)C1C(=O)N(c3ccc(Cl)cc3)C(=O)C12` (centres unmarked), for which the “hERG current change (%, negative = inhibition) at 1uM” value is reported as 4.66%. For `CC(Nc1ncnc2ccccc12)c1ccccc1` (centres unmarked) the value was 13.3%.

As for `CC(C)C(=O)N1CCN(c2c(Cl)cccc2[N+](=O)[O-])CC1`, the “hERG current change (%, negative = inhibition) at 1uM” value turned out to be 5.7%. Regarding `CC1CCCN(C(=O)COc2ccc(Nc3ccccc3)cc2)C1` (centres unmarked), the “hERG current change (%, negative = inhibition) at 1uM” value is given as 5.73%. Turning to `O=c1c2[nH]c3ccccc3c2ncn1CCN1CCOCC1`, the “hERG current change (%, negative = inhibition) at 1uM” value was 4.05%. For `Cc1cccc(C)c1NC(=O)CSc1nnc(C)n1CC1CCCO1` (centres unmarked) the value was 15.4%; for `Cc1cc(N2C(=O)C3C4C=CC(C4)C3C2=O)ccc1Br` (centres unmarked), 13.3%. For the compound `O=C1CCC(=O)N1c1nc2nc(-c3ccccc3)cc(=O)n2[nH]1`, the “hERG current change (%, negative = inhibition) at 1uM” value is listed as 21.1%.

On to `CCNC(=O)CSc1nc2cc(S(=O)(=O)Nc3ccc(OC)cc3)ccc2o1`, for which the “hERG current change (%, negative = inhibition) at 1uM” value is 12%. For the compound `C=CCN1C(=O)C(CC(=O)Nc2ccc(OC)cc2)N(Cc2ccco2)C1=S` (centres unmarked), the “hERG current change (%, negative = inhibition) at 1uM” value was -7.23%.

As to `Cc1ccccc1Oc1ncccc1C(=O)/C(C#N)=C/N(C)C`, the “hERG current change (%, negative = inhibition) at 1uM” value stood at 2.98%. Turning to `CCOc1ccccc1NC(=O)C1CCCN(S(=O)(=O)c2ccc(OC)c(C)c2)C1` (centres unmarked), the “hERG current change (%, negative = inhibition) at 1uM” value amounted to 6.34%. Consider `Cc1ccc(C(=O)Nc2cc(C(F)(F)F)ccc2N2CCCCC2)cc1[N+](=O)[O-]`, for which the “hERG current change (%, negative = inhibition) at 1uM” value is recorded as 14.2%. Regarding `Cc1ccc(S(=O)(=O)N(C)c2ccc(OCC(=O)O)cc2)cc1`, the “hERG current change (%, negative = inhibition) at 1uM” value was 3.13%.

For `CCOC(=O)C1=C(C)NC(=S)NC1C` (centres unmarked), the “hERG current change (%, negative = inhibition) at 1uM” value was determined as 1.28%. For the compound `Cc1ccc(C(=O)/C=C/NCc2ccc(F)cc2)cc1`, the “hERG current change (%, negative = inhibition) at 1uM” value is reported as 11.6%. To `COc1ccc2nc(NC(=O)CCn3cccc3)sc2c1` belongs -0.35%; to `Cc1nc(SCC(=O)Nc2nnc(C(C)C)s2)n[nH]1`, 15.3%; to `NS(=O)(=O)c1ccc(-c2ccc(/C=N/NC(=O)c3ccc([N+](=O)[O-])cc3)o2)cc1`, 14.5%. For `COC(=O)c1cc(C(=O)Nc2ccc(C)cn2)cc([N+](=O)[O-])c1` the value was 3.12%.

With `CCOc1ccc(N2C(=O)C(c3ccccc3)=C(c3nc4ccccc4s3)C2NC(C)=O)cc1` (centres unmarked), the “hERG current change (%, negative = inhibition) at 1uM” value worked out at 1.03%.

Regarding `COC(=O)c1ccc(/C=N/n2cnnc2)cc1`, the “hERG current change (%, negative = inhibition) at 1uM” value is 12.7%.

For the compound `COc1ccc(-n2nnnc2SCC(=O)c2ccc(O)c(O)c2)cc1`, the “hERG current change (%, negative = inhibition) at 1uM” value is recorded as 1.49%.

In the case of `CCC(=O)N1CCCc2cc(S(=O)(=O)CCC(=O)Nc3ccccc3C)ccc21`, the “hERG current change (%, negative = inhibition) at 1uM” value is 6.44%.

With `Cc1ccc(S(=O)(=O)N2CCN(C(=O)COC(=O)c3cccnc3Cl)CC2)c(C)c1`, the “hERG current change (%, negative = inhibition) at 1uM” value is 5.86%.

As to `Cc1ccc(NC(=O)C2CC(O)CN2C(=O)OCc2ccccc2)c(C)c1` (centres unmarked), the “hERG current change (%, negative = inhibition) at 1uM” value was 10.5%. For the compound `CC(C)NS(=O)(=O)c1ccc(CCC(=O)NCc2ccco2)cc1`, the “hERG current change (%, negative = inhibition) at 1uM” value is 8.06%. To `CCCCOC(=O)Nc1ccc(C(N)=O)cc1` belongs 1.76%. With `Cc1cc(C)cc(NC(=O)COC(=O)CCC2CCCC2)c1`, the “hERG current change (%, negative = inhibition) at 1uM” value stood at 7.98%.

In the case of `O=C(Cn1cnc2ccccc21)Nc1ccc2c(c1)OCCCO2`, the “hERG current change (%, negative = inhibition) at 1uM” value was 4.48%.

Take `O=S(=O)(c1cccs1)N1CCCc2cccc(O)c21`: the “hERG current change (%, negative = inhibition) at 1uM” value came out at 14.1%.

Consider `C=CCN1C(=O)C(Cc2ccc(OCC)cc2)S/C1=N\N=C\c1cccs1` (centres unmarked), for which the “hERG current change (%, negative = inhibition) at 1uM” value is given as 8.01%. In the case of `Clc1cc(Cl)cc(NC2=NCCS2)c1`, the “hERG current change (%, negative = inhibition) at 1uM” value is reported as -0.763%. Regarding `CC(C)(C)OC(=O)N[C@H](C(=O)OC(C)(C)C)c1ccc2ccccc2c1`, the “hERG current change (%, negative = inhibition) at 1uM” value turned out to be 6.32%. For `COC(=O)c1ccc(NS(=O)(=O)c2cccc3cccnc23)cc1`, the “hERG current change (%, negative = inhibition) at 1uM” value amounted to 18.7%.

For the compound `O=C1/C(=C\c2ccc(-c3ccccc3Cl)o2)SC(=S)N1CC1CCCO1` (centres unmarked), the “hERG current change (%, negative = inhibition) at 1uM” value stood at 11.4%. On to `Cc1ccc(C(=O)Oc2cccc(NC(=O)c3ccco3)c2)cc1S(=O)(=O)N1CCC(C)CC1`, for which the “hERG current change (%, negative = inhibition) at 1uM” value is -7.04%. For the compound `O=S1(=O)N=C(Nc2ccc(O)c(CN3CCCCC3)c2)c2ccccc21`, the “hERG current change (%, negative = inhibition) at 1uM” value came out at 6.69%.

The record behind these values is publication PMC4336329 (PLoS ONE, 2015).
